Laboratory results published in the supplement of paper PMC7826260.
The other results are listed elsewhere or left out. One pool of 16,384 single-stranded DNAs met each Rep nickase domain in vitro (1 h at 37 °C, 3 µM enzyme); the outer parts of the 90-letter strands are left off. The score is log2 (uncut reads / reads without enzyme); more negative means more cut, near 0 not cut, and no call is made. Counts are relative to all reads; where an enzyme cuts many sequences, the uncut ones exceed 0.

test system: T1, Rep nickase domain of tomato golden mosaic virus; assay: uncleaved DNA left, log2 of reads against the no-enzyme library (log2 ratio); higher = less cleavage (more negative = more Rep cleavage of the k-mer); sequences stand for … in CTCGTCCG…ACCGGAGA
T1 sequence (residues 1-124 of Rep, tag left off): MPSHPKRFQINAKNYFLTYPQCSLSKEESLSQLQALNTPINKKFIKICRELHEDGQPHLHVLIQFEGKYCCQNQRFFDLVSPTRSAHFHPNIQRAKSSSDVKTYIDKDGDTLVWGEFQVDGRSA
Method: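 A pool of 90-nt single-stranded DNAs with seven random bases just before the constant AC of the nick site (name = the seven bases) was cut by 3 µM recombinant His6-SUMO-tagged Rep nickase domain (300 nM DNA, 50 mM HEPES pH 8.0, 50 mM NaCl, 1 mM MnCl2, 1 h, 37 °C, three replicates). Uncut DNA was amplified and sequenced.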

Sequence | uncleaved DNA left (log2)
CCAACCT | 0.0331
CTTACTG | -0.147
GGCCACA | 0.044
TGCAGGT | 0.0268
TTGGTCT | 0.0438
TGATTAC | 0.0548
CAGCCTT | 0.147
AGACTAC | -0.274
TCATCGA | 0.0171
GTACAGC | 0.119
TTCTTCA | -0.142
CTTTGCA | -0.0727
TTTACCT | -0.0683
AGAACTA | -0.0406
TAATATG | 0.141
GGCATGT | -0.0133
CGACTTC | -0.0894
CGAGCCA | 0.0575
CCGATCT | -0.0917
GAAACGC | 0.13

Sequence | uncleaved DNA left (log2)
CGGCAGC | 0.00707
TCCCGAG | 0.277
TCAGCTC | -0.00821
CCACTAA | -0.113
CCTCGCT | 0.0569
GCAGGTC | 0.154
TTTAGGT | 0.0674
AAGTTTG | 0.176
AGACTCT | 0.0349
ACTACTC | -0.0252
CTTTATT | -0.705
TGACAGA | 0.0151
CTTTCTA | -0.11
ACCTTAC | -0.0721
CCGACGC | -0.221
GAGCCCA | 0.00491
TGGGTAA | -0.0163
TTCCACA | 0.121
AAACCAC | -0.072
CGAGTGT | 0.0496
